Results from PubChem BioAssay AID624173 (National Center for Advancing Translational Sciences (NCATS), 2012).
Hit rate of the full screen: of about 410,000 compounds, about 490 (0.12%) were called active. Inconclusive means that the source gave no clear call. Such entries were picked first, then a sample of the others. The call rests on the fitted dose curve; in most records, active means well fitted inhibition curve with a large enough effect; inconclusive means small, poorly fitted or top-dose-only effect; inactive means flat fitted curve, though single readings scatter. Potencies beside an inconclusive call are fits to weak or partial responses and may not hold up.

What follows are compounds tested against pyruvate kinase (Trypanosoma brucei) (UniProt Q57TT1) (assay: qHTS of Trypanosoma Brucei Inhibitors). Details: TbPYK enzyme, Kinase-Glo Plus ATP luminescence, 45 min; series mostly up to 76.8 µM; activity, negative = inhibition: at the top concentration.
Outline: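 Readout: single end-point luminescence (Kinase-Glo Plus, 10 min). Reaction conditions were TbPYK/substrate plus 130 uM ADP, 45 min at RT, pH 7.2 TEA buffer. No-enzyme wells served as controls, and data were normalized before concentration-response fitting.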
Further: nearly all actives have a fitted effect of over 50% in size.
On the % scale 0 is the no-effect control and ±100 the full control effect; potency means the concentration at half of the fitted maximal effect; tags describe the fitted curve by direction and shape.

Row | Structure (SMILES) | Potency | activity, negative = inhibition
1 | CC(C)CSc1n[nH]c(=S)s1 | inconclusive: 17.8 µM [inhibitor, partial curve] | –
2 | CCC(C)NC(=O)C1CC(c2ccc(OC)cc2)=NO1 (configuration not stated) | – | inactive: 9.83%
3 | O=C(O)/C=C/C(=O)Nc1ccccc1C(=O)Nc1ccccc1 | inconclusive: 39.8 µM [inhibitor, single point] | –
4 | Cn1c(CCc2ccccc2)n[nH]c1=S | inconclusive: 15.8 µM [inhibitor, partial curve, poor fit] | –
5 | COc1cccc(N2CC(NS(=O)(=O)c3cccnc3)CC2=O)c1 (configuration not stated) | inconclusive: 50.1 µM [inhibitor, partial curve, poor fit] | –
6 | COc1ccc(CC(=O)N2CC(=O)Nc3ccc(F)cc3C2c2ccccc2)cc1 (configuration not stated) | inconclusive: 28.2 µM [inhibitor, partial curve] | –
7 | CCOC(=O)CNC(=O)N1CCN(S(=O)(=O)c2ccc3c(ccn3C)c2)CC1 | – | inactive: 5.56%
8 | S=c1nc(-c2csc3c2CCCC3)[nH][nH]1 | inconclusive: 17.8 µM [inhibitor, partial curve, poor fit] | –
9 | CC(=O)Nc1ccc(NC(=O)c2ccccc2C)cc1 | – | inactive: -1.62%
10 | CCOc1ccccc1N1CSC2=C(C#N)C(c3c(OC)ccc4ccccc34)CC(=O)N2C1 (configuration not stated) | active: 3.55 µM | –
11 | Cc1ccc(/C=C/C(=O)NCCc2cccc(Cl)c2)o1 | active: 15.8 µM | –
12 | CCOC(=O)c1cnc2c(C(F)(F)F)cccc2c1N1CCOCC1 | – | inactive: 0.494%
13 | Cc1ccc(C(=O)Nc2cc3[nH]c(=O)oc3cc2C)cc1 | – | inactive: 10.3%
14 | O=C(Cn1cnc2sc(-c3ccccc3)cc2c1=O)NCc1ccco1 | inconclusive: 28.2 µM [inhibitor, partial curve, poor fit] | –
15 | S=c1[nH]nc(-c2ccco2)n1/N=C/c1ccccc1 | inconclusive: 8.91 µM [inhibitor, partial curve] | –
16 | Cc1cccc(OCC(=O)N/N=C2/SCC(=O)N2Cc2ccco2)c1 | inconclusive: 20 µM [inhibitor, partial curve] | –
17 | Cc1ccsc1CN(C)CC(=O)NCC(=O)Nc1ccc(F)c(F)c1F | – | inactive: 0.248%
18 | S=C(Nc1ccccn1)c1ccccn1 | inconclusive: 35.5 µM [inhibitor, single point] | –
19 | COc1ccc(NC(=O)COc2ccc(/C=C/c3cc[n+](C)cc3)cc2OC)cc1 | – | inactive: -3.01%
20 | O=c1c2sccc2nc(SCc2ccc([N+](=O)[O-])cc2)n1Cc1ccccn1 | – | inactive: -1.3%
21 | S=C(NNC(=S)Nc1ccc(Cl)cc1)NNc1ccccc1 | inconclusive: 44.7 µM [inhibitor, partial curve, poor fit] | –
22 | O=C(N/N=C/c1ccc(N2CCOCC2)o1)c1ccccc1[N+](=O)[O-] | inconclusive: 50.1 µM [inhibitor, single point] | –
23 | COc1ccc(COc2ccc3c(C)cc(=O)oc3c2)cc1 | – | inactive: 2.88%
24 | COc1ccc(OC)c(S(=O)(=O)Nc2ccc(O)c3ccccc23)c1 | inconclusive: 22.4 µM [inhibitor, partial curve, poor fit] | –

Row | Structure (SMILES) | Potency | activity, negative = inhibition
25 | O=C1C(O)=CC(=C(c2ccccc2)c2ccccc2)c2ccccc21 | – | inactive: 4.4%
26 | O=C(O)CCCn1c(=S)[nH]c2c(sc3ccc([N+](=O)[O-])cc32)c1=O | active: 20 µM | –
27 | c1ccc(-c2nnc3n2NC(c2ccc4c(c2)OCO4)S3)cc1 (configuration not stated) | inconclusive: 1 µM [inhibitor, full curve, poor fit] | –
28 | CCc1nnc(NC(=O)CN2CCN(C3CCCCC3)CC2)s1 | – | inactive: -2.02%
29 | CNC(=O)CN1C(=O)COc2ccc(S(=O)(=O)N3CCCCCC3)cc21 | inactive | –
30 | CC(=O)C1=C(C)NC(SCC(N)=O)=C(C#N)C1C (configuration not stated) | active: 8.91 µM | –
31 | COc1ccc(/C=C/C=C2C(=O)NC(=S)NC2=O)cc1 | inconclusive: 17.8 µM [inhibitor, partial curve, poor fit] | –
32 | Cc1onc(-c2ccccc2)c1-c1n[nH]c(=S)n1-c1ccc(C(=O)O)cc1 | inconclusive: 12.6 µM [inhibitor, partial curve, poor fit] | –
33 | CCCC(=O)Nc1sc(Cc2ccccc2)c(C)c1C(N)=O | inconclusive: 31.6 µM [inhibitor, partial curve, poor fit] | –
34 | O=C1/C(=C/c2ccc(O)c(O)c2)Oc2cc(O)ccc21 | inconclusive: 31.6 µM [inhibitor, partial curve, poor fit] | –
35 | COc1ccc(OC)c(S(=O)(=O)N(C)CC(=O)Nc2ccccc2OC)c1 | – | inactive: 0.414%
36 | C=CCOC(=O)C1=C(C)N=c2s/c(=C3\C(=O)N(CC(=O)O)c4ccccc43)c(=O)n2C1c1ccc(OC)cc1 (configuration not stated) | inconclusive: 31.6 µM [inhibitor, single point] | –
37 | Fc1ccccc1/C=N/n1cc(-c2ccccc2)[nH]c1=S | inconclusive: 3.16 µM [inhibitor, full curve, poor fit] | –
38 | Cc1ccc(Cn2c(C3CCCN3c3nc(-c4cc(Cl)c(N)c(Cl)c4)cs3)nc3cc(C(=O)NCCCO)ccc32)cc1 (configuration not stated) | – | inactive: -13.1%
39 | NC1=NC(S)C2N=CN=C2N1 (configuration not stated) | inconclusive: 15.8 µM [inhibitor, partial curve, poor fit] | –
40 | O=c1c2cc(F)ccc2sn1-c1ccccc1 | inconclusive: 5.01 µM [inhibitor, full curve, poor fit] | –
41 | CSCCC(NS(=O)(=O)c1ccc(Cl)cc1)C(=O)OCC(=O)c1c(C)[nH]c2ccccc12 (configuration not stated) | – | inactive: -10.2%
42 | CC(C)(C)c1cn(-c2ccc(Cl)cc2)c(=S)[nH]1 | inconclusive: 0.891 µM [inhibitor, full curve] | –
43 | CC[C@H](C)[C@H](NC(=O)c1ccc(Cl)cc1)C(=O)OCC(=O)c1ccc2c(c1)NC(=O)CO2 | – | inactive: -8.22%
44 | CCOCC(=O)Nc1ccc(S(=O)(=O)Nc2nccs2)cc1 | – | inactive: -8.6%
45 | O=c1c2ccccc2sn1-c1nccs1 | active: 5.62 µM | –
46 | O=[N+]([O-])c1cccc(-c2cn(-c3ccccc3)c(=S)[nH]2)c1 | inconclusive: 2.82 µM [inhibitor, full curve, poor fit] | –
47 | COc1ccc2[nH]c(C(=O)NCc3ccc4c(c3)OCO4)cc2c1 | inconclusive: 28.2 µM [inhibitor, partial curve, poor fit] | –
48 | COc1ccc(CCCc2n[nH]c(=S)n2C)cc1C | inconclusive: 8.91 µM [inhibitor, partial curve] | –

Row | Structure (SMILES) | Potency | activity, negative = inhibition
49 | Cc1ccc2c(CNCc3ccco3)cc(=O)oc2c1 | – | inactive: 6.72%
50 | CCc1ccc(C(=O)NC2=NC(c3cc(OC)ccc3OC)CC(=O)N2)cc1 (configuration not stated) | – | inactive: 0.488%
51 | CSc1nc(=S)cc(C)[nH]1 | inconclusive: 28.2 µM [inhibitor, partial curve] | –
52 | COC(=O)c1ccc(CSc2n[nH]c(=S)s2)o1 | inconclusive: 20 µM [inhibitor, partial curve] | –
53 | CC(C)(C)C(=O)Nc1ccc2nc(SCC(=O)N3CCc4ccccc43)sc2c1 | – | inactive: -7.44%
54 | CCc1ccc(-n2c(C)n[nH]c2=S)cc1 | inconclusive: 7.94 µM [inhibitor, partial curve] | –
55 | COc1cccc(C(=O)Nc2cccc(C(=O)OCc3cc(=O)n4c5c(sc4n3)CCCC5)c2)c1 | – | inactive: -9.74%
56 | O=c1[nH]c(=O)n(C2CC(O)C(CO)O2)cc1Br (configuration not stated) | inconclusive: 25.1 µM [inhibitor, partial curve, poor fit] | –
57 | CCOC(=O)Cn1cnc2c(nnn2Cc2ccc(Cl)cc2)c1=O | inconclusive: 5.01 µM [inhibitor, partial curve, poor fit] | –
58 | S=c1[nH]nc(COc2ccccc2)n1/N=C/c1cccnc1 | inconclusive: 2.24 µM [inhibitor, full curve, poor fit] | –
59 | CCOC(=O)c1c(NC(NC(C)=O)C(Cl)(Cl)Cl)sc2c1CCCC2 (configuration not stated) | inconclusive: 35.5 µM [inhibitor, single point] | –
60 | Cc1ccc(C(=S)N2CCN(Cc3ccccc3)CC2)cc1 | inconclusive: 20 µM [inhibitor, partial curve, poor fit] | –
61 | Cc1cccc2sc(NNC(=O)c3ccc(S(=O)(=O)N4CCc5ccccc5C4)cc3)nc12 | inconclusive: 35.5 µM [inhibitor, single point] | –
62 | O=C(CN1C(=O)NC2(CCc3ccccc32)C1=O)c1ccc(Br)cc1 (configuration not stated) | – | inactive: 5.2%
63 | Cc1ccc(NC(=O)C2CCCN2S(=O)(=O)c2ccc3c(c2)C(C)(C)C(=O)N3C)cc1 (configuration not stated) | – | inactive: -2.1%
64 | COc1cc(C(c2sc3nc(C)nn3c2O)N2CCC3(CC2)OCCO3)cc(OC)c1OC (configuration not stated) | inconclusive: 39.8 µM [inhibitor, single point] | –
65 | COc1ccc(N2CCN(C(=O)C(C)n3c(=O)cc(C(F)(F)F)c4c(C)nn(C)c43)CC2)cc1 (configuration not stated) | – | inactive: -5.13%
66 | COc1ccccc1CNS(=O)(=O)c1ccc2c(c1)CC(C)N2C(=O)C1CCC1 (configuration not stated) | inconclusive: 31.6 µM [inhibitor, partial curve, poor fit] | –
67 | S=c1[nH]nc(-c2ccn[nH]2)n1-c1ccccc1Cl | inconclusive: 15.8 µM [inhibitor, partial curve, poor fit] | –
68 | Cc1ccc(Sc2c(C)nn(C(=O)c3ccc(Br)cc3)c2C)cc1 | – | inactive: 0.195%
69 | Cc1ccc2c(c1)COc1c3ccc(C(=O)O)cc3nn1-2 | inconclusive: 39.8 µM [inhibitor, single point] | –
70 | N/C(=N\OC(=O)c1ccc(Cl)cc1)c1ccccn1 | inconclusive: 15.8 µM [inhibitor, partial curve, poor fit] | –
71 | Cc1ccc(NC(=O)Cn2c(O)c(N=NS(=O)(=O)c3ccc(C)cc3)c3ccccc32)cc1 | inconclusive: 35.5 µM [inhibitor, partial curve] | –
72 | CC1(C)Oc2ccc(C(=O)Nc3ccccc3F)cc2N(CC(=O)N2CCOCC2)C1=O | – | inactive: 0%
